Measurements from PubChem BioAssay AID270 (DTP/NCI, 2004).
Records with an inconclusive call do not appear. For part of its entries the source gives two or more results. Only these are listed. There may be further records. The records of an entry are repeats across runs, samples, wells, individuals or studies. Marks such as (2×) count equal records among those shown.

Test system: BDF1 mice, s.c. Lewis lung carcinoma, T/C %
Test: NCI In Vivo Anticancer Drug Screen. Data for tumor model Lewis Lung Carcinoma (subcutaneous) in B6D2F1 (BDF1) mice
Procedure: The antitumor activity of compounds was measured in mice bearing transplantable tumors. Survival or tumor size were measured and the results are expressed as the measurement made in the treated group (T) divided by the measurement made in the vehicle treated control group (C). The tumor model used in this assay is Lewis Lung Carcinoma (subcutaneous) in B6D2F1 (BDF1) mice

[1] = endpoint: mean tumor weight, dose: 80.0 mg/kg/injection, schedule: Q01DX011 (ip), vehicle: other, higher = larger tumour
[2] = endpoint: mean tumor weight, dose: 250.0 mg/kg/injection, schedule: Q01DX011 (ip), vehicle: saline, higher = larger tumour
[3] = endpoint: mean tumor weight, dose: 500.0 mg/kg/injection, schedule: Q01DX011 (ip), vehicle: saline, higher = larger tumour
[4] = endpoint: mean tumor weight, dose: 30.0 mg/kg/injection, schedule: Q01DX011 (ip), vehicle: other, higher = larger tumour
[5] = endpoint: mean tumor weight, dose: 25.0 mg/kg/injection, schedule: Q01DX011 (ip), vehicle: carboxymethylcellulose (CMC), higher = larger tumour
[6] = endpoint: mean tumor weight, dose: 100.0 mg/kg/injection, schedule: Q01DX011 (ip), vehicle: saline, higher = larger tumour
[7] = endpoint: mean tumor weight, dose: 30.0 mg/kg/injection, schedule: Q01DX011 (ip), vehicle: carboxymethylcellulose (CMC), higher = larger tumour
[8] = endpoint: mean tumor weight, dose: 60.0 mg/kg/injection, schedule: Q01DX011 (ip), vehicle: carboxymethylcellulose (CMC), higher = larger tumour
[9] = endpoint: mean tumor weight, dose: 125.0 mg/kg/injection, schedule: Q01DX011 (ip), vehicle: saline, higher = larger tumour

CCCC(Sc1nc(N)nc2nc[nH]c12)C(=O)O (stereo not given)
T/C [1]: 55 % of control and 93 % of control

O=c1[nH]c(=O)n(C2CC(O)C(CO)O2)cc1F (stereo not given)
T/C (endpoint: median survival time, dose: 100.0 mg/kg/injection, schedule: Q01DX009 (ip), vehicle: saline, higher = longer survival): 95 % of control and 181 % of control

Cc1c(N)nc([C@H](CC(N)=O)NC[C@H](N)C(N)=O)nc1C(=O)N[C@H](C(=O)N[C@H](C)[C@@H](O)[C@H](C)C(=O)N[C@H](C(=O)NCCc1nc(-c2nc(C(=O)NCCC[S+](C)C)cs2)cs1)[C@@H](C)O)C(OC1OC(CO)C(O)C(O)C1OC1OC(CO)C(O)C(OC(N)=O)C1O)c1cnc[nH]1 (stereo not given in full)
T/C (endpoint: median survival time, dose: 16.0 mg/kg/injection, schedule: Q01DX009 (ip), vehicle: saline, higher = longer survival): 114 % of control and 159 % of control

CC(=O)Nc1cc2c(cc1Br)-c1ccccc1C2O (stereo not given)
T/C (endpoint: mean tumor weight, dose: 35.0 mg/kg/injection, schedule: Q01DX011 (ip), vehicle: saline, higher = larger tumour): 21 % of control, 40 % of control, 62 % of control

CN1CC(=O)NC1=O
T/C [2]: 60 % of control, 75 % of control, 113 % of control | T/C [3]: 53 % of control, 76 % of control, 85 % of control | T/C (endpoint: mean tumor weight, dose: 1000.0 mg/kg/injection, schedule: Q01DX011 (ip), vehicle: saline, higher = larger tumour): 36 % of control, 96 % of control, 105 % of control

OC(CBr)C(O)C(O)C(O)CBr (stereo not given)
T/C (endpoint: mean tumor weight, dose: 200.0 mg/kg/injection, schedule: Q01DX011 (ip), vehicle: saline, higher = larger tumour): 38 % of control and 172 % of control

O=C1CN=C(c2ccc[nH]2)c2cc(Cl)ccc2N1
T/C [1]: 8 % of control and 109 % of control

COc1cc(O)c2c(c1)Cc1cc(C)cc(O)c1C2=O
T/C (endpoint: median survival time, dose: 0.8 mg/kg/injection, schedule: Q01DX009 (ip), vehicle: saline with Tween-80, higher = longer survival): 117 % of control and 151 % of control | T/C (endpoint: median survival time, dose: 1.6 mg/kg/injection, schedule: Q01DX009 (ip), vehicle: saline with Tween-80, higher = longer survival): 117 % of control and 161 % of control

CCn1cnc2c(=S)nc(N)[nH]c21
T/C [4]: 5 % of control and 52 % of control

NCCCOc1ccc([N+](=O)[O-])cc1Cl
T/C (endpoint: median survival time, dose: 25.0 mg/kg/injection, schedule: Q01DX009 (ip), vehicle: saline, higher = longer survival): 107 % of control and 150 % of control

CCN(CC)C(=S)S.[Te]
T/C (endpoint: mean tumor weight, dose: 12.5 mg/kg/injection, schedule: Q01DX011 (ip), vehicle: carboxymethylcellulose (CMC), higher = larger tumour): 39 % of control and 65 % of control | T/C [5]: 32 % of control and 72 % of control | T/C (endpoint: mean tumor weight, dose: 100.0 mg/kg/injection, schedule: Q01DX011 (ip), vehicle: carboxymethylcellulose (CMC), higher = larger tumour): 10 % of control, 16 % of control, 53 % of control

CC1(C)CCC(NC(=O)N(CCF)N=O)CC1
T/C (endpoint: median survival time, dose: 13.0 mg/kg/injection, schedule: Q01DX009 (ip), vehicle: saline with Tween-80, higher = longer survival): 118 % of control and 190 % of control

CC(=O)OC1C=CC(=O)OC1C1OC1C (stereo not given)
T/C (endpoint: mean tumor weight, dose: 13.0 mg/kg/injection, schedule: Q01DX011 (ip), vehicle: saline, higher = larger tumour): 76 % of control and 114 % of control

COc1ccc(-c2cc(=O)c3c(OC)c(OC)c(OC)c(OC)c3o2)cc1OC
T/C [6]: 48 % of control and 80 % of control | T/C (endpoint: mean tumor weight, dose: 400.0 mg/kg/injection, schedule: Q01DX011 (ip), vehicle: saline, higher = larger tumour): 39 % of control and 82 % of control

NNc1nncc2ccccc12
T/C (endpoint: mean tumor weight, dose: 45.0 mg/kg/injection, schedule: Q01DX011 (ip), vehicle: carboxymethylcellulose (CMC), higher = larger tumour): 49 % of control and 97 % of control

Cn1c(O)c(N=NC(N)=S)c2ccccc21
T/C [7]: 45 % of control and 83 % of control | T/C [8]: 53 % of control and 121 % of control | T/C (endpoint: mean tumor weight, dose: 240.0 mg/kg/injection, schedule: Q01DX011 (ip), vehicle: carboxymethylcellulose (CMC), higher = larger tumour): 41 % of control, 55 % of control, 82 % of control

CNC=O
T/C [9]: 67 % of control and 113 % of control

Cc1cccc(NC(=O)N(CCCl)N=O)c1
T/C (endpoint: median survival time, dose: 1.5 mg/kg/injection, schedule: Q01DX009 (ip), vehicle: saline with Tween-80, higher = longer survival): 112 % of control and 161 % of control

O=P1(N(CCCl)CCCl)NCCCO1 (stereo not given)
T/C (endpoint: mean tumor weight (est.), dose: 23.0 mg/kg/injection, schedule: Q01DX009 (ip), vehicle: saline, higher = larger tumour): 32 % of control, 40 % of control, 152 % of control | T/C (endpoint: mean tumor weight (est.), dose: 39.0 mg/kg/injection, schedule: Q01DX009 (ip), vehicle: saline, higher = larger tumour): 19 % of control and 75 % of control | T/C (endpoint: median survival time, dose: 29.6 mg/kg/injection, schedule: Q04DX003 (ip), vehicle: saline, higher = longer survival): 96 % of control and 177 % of control

CC(=O)OCC(=O)[C@@]1(O)CC[C@H]2[C@@H]3C[C@H](C)C4=CC(=O)C=C[C@]4(C)[C@@]3(Br)[C@@H](O)C[C@@]21C
T/C (endpoint: mean tumor weight, dose: 2.25 mg/kg/injection, schedule: Q01DX011 (sc), vehicle: steriod suspending solution, higher = larger tumour): 48 % of control and 82 % of control

CCOC(=O)NP(=O)(N1CC1)N1CC1
T/C (endpoint: mean tumor weight, dose: 10.0 mg/kg/injection, schedule: Q01DX011 (ip), vehicle: saline, higher = larger tumour): 20 % of control and 57 % of control

O=NN(CCCl)C(=O)Nc1ccc2[nH]c3ccccc3c2c1
T/C (endpoint: median survival time, dose: 16.25 mg/kg/injection, schedule: Q01DX009 (ip), vehicle: Klucel (hydroxypropylcellulose) (HPC), higher = longer survival): 109 % of control and 164 % of control

O=C(O)CCCc1ccc(N(CCCl)CCCl)cc1
T/C (endpoint: median survival time, dose: 4.0 mg/kg/injection, schedule: Q01DX009 (ip), vehicle: saline with Tween-80, higher = longer survival): 110 % of control and 152 % of control

COc1ccc2c(c1)CC[C@@H]1[C@@H]2CC[C@]2(C)/C(=N\O)CC[C@@H]12
T/C (endpoint: mean tumor weight, dose: 10.0 mg/kg/injection, schedule: Q01DX011 (sc), vehicle: steriod suspending solution, higher = larger tumour): 112 % of control and 165 % of control | T/C (endpoint: mean tumor weight, dose: 25.0 mg/kg/injection, schedule: Q01DX011 (sc), vehicle: steriod suspending solution, higher = larger tumour): 109 % of control and 177 % of control | T/C (endpoint: mean tumor weight, dose: 100.0 mg/kg/injection, schedule: Q01DX011 (sc), vehicle: steriod suspending solution, higher = larger tumour): 44 % of control, 73 % of control, 119 % of control

CC1CCC(NC(=O)N(CCCl)N=O)CC1 (stereo not given)
T/C (endpoint: median survival time, dose: 8.0 mg/kg/injection, schedule: Q01DX009 (ip), vehicle: Klucel (hydroxypropylcellulose) (HPC), higher = longer survival): 95 % of control (2×) and 153 % of control

Nc1nc(SCc2ccccc2Cl)c2[nH]cnc2n1
T/C [4]: 29 % of control and 86 % of control

CC[C@]1(O)C[C@H]2CN(CCc3c([nH]c4ccccc34)[C@@](C(=O)OC)(c3cc4c(cc3OC)N(C=O)[C@H]3[C@@](O)(C(=O)OC)[C@H](OC(C)=O)[C@]5(CC)C=CCN6CC[C@]43[C@@H]65)C2)C1
T/C (endpoint: mean tumor weight, dose: 0.33 mg/kg/injection, schedule: Q01DX011 (ip), vehicle: saline, higher = larger tumour): 63 % of control and 90 % of control

CS(=O)(=O)OCC(O)C(O)C(O)C(O)COS(C)(=O)=O (stereo not given)
T/C [6]: 74 % of control and 110 % of control

CCCCn1cnc2c(SC)nc(N)nc21
T/C (endpoint: mean tumor weight, dose: 240.0 mg/kg/injection, schedule: Q01DX011 (ip), vehicle: other, higher = larger tumour): 43 % of control and 77 % of control

C=CCn1c(=O)n(CC=C)c(=O)n(CC=C)c1=O
T/C [7]: 48 % of control and 83 % of control | T/C [8]: 74 % of control and 121 % of control

CC(=O)[C@H]1CC[C@H]2[C@@H]3CC[C@@H]4CC(=O)CC[C@]4(C)[C@H]3[C@@H]3O[C@@H]3[C@]12C
T/C (endpoint: mean tumor weight, dose: 125.0 mg/kg/injection, schedule: Q01DX011 (ip), vehicle: other, higher = larger tumour): 115 % of control and 170 % of control

CCCCCCC(=O)NC1=C(N2CC2)C(=O)C(NC(=O)CCCCCC)=C(N2CC2)C1=O
T/C (endpoint: mean tumor weight, dose: 15.0 mg/kg/injection, schedule: Q01DX011 (ip), vehicle: other, higher = larger tumour): 26 % of control and 85 % of control

CCOC(=O)C1CCC(NC(=O)N(CCCl)N=O)CC1 (stereo not given)
T/C (endpoint: median survival time, dose: 45.0 mg/kg/injection, schedule: Q01DX001 (ip), vehicle: gum acacia, higher = longer survival): 78 % of control and 199 % of control

CCN(CC)C(=S)S
T/C [2]: 89 % of control and 150 % of control | T/C [3]: 68 % of control and 119 % of control

CCc1ccccc1N1CCN(C(=O)c2cc(OC)c(OC)c(OC)c2)CC1
T/C (endpoint: mean tumor weight, dose: 50.0 mg/kg/injection, schedule: Q01DX011 (ip), vehicle: carboxymethylcellulose (CMC), higher = larger tumour): 18 % of control and 58 % of control

O=CN1CCOCC1
T/C [9]: 83 % of control and 112 % of control

N#Cc1ccc(S(N)(=O)=O)cc1
T/C [5]: 47 % of control and 117 % of control

C[C@]12CC[C@H](O)CC1=CC[C@@H]1[C@@H]2CC[C@]2(C)c3nc4ccccc4cc3C[C@@H]12
T/C (endpoint: mean tumor weight, dose: 250.0 mg/kg/injection, schedule: Q01DX011 (sc), vehicle: steriod suspending solution, higher = larger tumour): 43 % of control and 69 % of control

Clc1[nH]nc2ccccc12
T/C (endpoint: mean tumor weight, dose: 62.5 mg/kg/injection, schedule: Q01DX011 (ip), vehicle: saline, higher = larger tumour): 46 % of control and 74 % of control

CCCCCC/C=C/C#CCCCCCCCC(=O)O
T/C (endpoint: median survival time, dose: 150.0 mg/kg/injection, schedule: Q01DX009 (ip), vehicle: Klucel (hydroxypropylcellulose) (HPC), higher = longer survival): 96 % of control and 150 % of control

CCN(CC)CC(C)Nc1ccc(C)c2sc3ccccc3c(=O)c12 (stereo not given)
T/C [1]: 34 % of control and 122 % of control
